Experimental data: PMC4336329 (PLoS ONE, 2015)
Hit rate of the full screen: of about 310,000 compounds, about 2,200 (0.71%) showed an effect of 50% or more. The effect is printed as a negative number. The list shows a part of the results.

Each compound was assayed against human ether-à-go-go-related gene (hERG) potassium channel (human, UniProt Q12809) (assay: primary screen, population patch clamp on CHO cells stably expressing hERG).
Chain of human ether-à-go-go-related gene (hERG) potassium channel (Q12809 whole entry, looked up): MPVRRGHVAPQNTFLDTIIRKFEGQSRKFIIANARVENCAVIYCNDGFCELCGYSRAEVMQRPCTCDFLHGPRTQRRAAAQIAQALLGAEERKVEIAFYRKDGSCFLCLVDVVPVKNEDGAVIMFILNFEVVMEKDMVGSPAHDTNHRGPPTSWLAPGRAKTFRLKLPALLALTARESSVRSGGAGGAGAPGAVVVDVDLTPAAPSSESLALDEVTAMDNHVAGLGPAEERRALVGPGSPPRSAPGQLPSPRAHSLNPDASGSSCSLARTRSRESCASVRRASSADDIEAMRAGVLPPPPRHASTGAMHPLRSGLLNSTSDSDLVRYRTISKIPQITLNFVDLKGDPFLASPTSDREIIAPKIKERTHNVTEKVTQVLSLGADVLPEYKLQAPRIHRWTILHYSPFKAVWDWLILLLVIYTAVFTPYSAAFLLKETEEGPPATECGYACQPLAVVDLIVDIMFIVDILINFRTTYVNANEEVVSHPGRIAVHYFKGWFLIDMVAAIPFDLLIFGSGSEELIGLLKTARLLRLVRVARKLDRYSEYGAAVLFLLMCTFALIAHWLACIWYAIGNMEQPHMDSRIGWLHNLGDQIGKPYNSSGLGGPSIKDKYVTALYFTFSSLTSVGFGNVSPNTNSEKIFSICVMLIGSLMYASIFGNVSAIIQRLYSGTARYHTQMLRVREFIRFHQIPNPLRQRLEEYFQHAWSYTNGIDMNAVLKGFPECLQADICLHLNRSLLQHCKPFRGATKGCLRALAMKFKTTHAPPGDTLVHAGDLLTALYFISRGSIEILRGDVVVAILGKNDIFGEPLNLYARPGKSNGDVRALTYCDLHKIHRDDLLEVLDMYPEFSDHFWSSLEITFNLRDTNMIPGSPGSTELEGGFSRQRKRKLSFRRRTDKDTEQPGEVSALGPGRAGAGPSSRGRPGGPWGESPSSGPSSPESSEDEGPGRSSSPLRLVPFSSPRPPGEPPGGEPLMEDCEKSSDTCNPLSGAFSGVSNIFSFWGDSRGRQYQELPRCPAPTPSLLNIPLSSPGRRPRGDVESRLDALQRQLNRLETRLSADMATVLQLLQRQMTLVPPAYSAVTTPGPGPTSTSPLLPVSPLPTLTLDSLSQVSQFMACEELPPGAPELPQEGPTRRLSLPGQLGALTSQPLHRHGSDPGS
`O=C(O)c1ccc(Nc2cnc3ccccc3n2)cc1` was tested, and the “hERG current change (%, negative = inhibition) at 1uM” value was 9.11%. In the case of `N#Cc1ccc(C23CC4CC(CC(C4)C2)C3)[nH]c1=O`, the “hERG current change (%, negative = inhibition) at 1uM” value is reported as 6.36%. In the case of `COc1cc2ccccc2cc1C(=O)Nc1ccc(N2CCN(C)CC2)cc1`, the “hERG current change (%, negative = inhibition) at 1uM” value is reported as 6.86%. For `Cc1ccc(C(=O)N2CCCC2)cc1S(=O)(=O)Nc1cccc(C)c1C`, the “hERG current change (%, negative = inhibition) at 1uM” value was 8.05%. With `O=C(NCc1cccnc1)C1CCN(S(=O)(=O)N2CCOCC2)CC1` the “hERG current change (%, negative = inhibition) at 1uM” value was 3.6%. For `Cc1ccc(NC(=O)C[n+]2ccccc2)cc1[N+](=O)[O-].[Cl-]`, the “hERG current change (%, negative = inhibition) at 1uM” value was 6.44%. With `CN1/C(=C\C=N\O)C(C)(C)c2ccccc21` the “hERG current change (%, negative = inhibition) at 1uM” value was 14.7%. For `COc1cc2nc(NC(=O)c3ccco3)sc(=O)c2cc1OC`, the “hERG current change (%, negative = inhibition) at 1uM” value was 6.25%. `COc1ccccc1NC(=O)CSc1nnc(-c2ccco2)n1Cc1ccco1` was tested, and the “hERG current change (%, negative = inhibition) at 1uM” value was -11.9%. In the case of `C=CCSc1nnc2nc3[nH]c4c(C)cccc4c3nn12`, the “hERG current change (%, negative = inhibition) at 1uM” value is reported as 13.9%. With `COC(=O)c1ccc(COc2ccc(/C=C(\C#N)c3nc4ccccc4[nH]3)cc2OC)o1` the “hERG current change (%, negative = inhibition) at 1uM” value was 16.2%. For `O=C(COC(=O)C1CCC1)Nc1cc(S(=O)(=O)N2CCCCC2)ccc1Cl`, the “hERG current change (%, negative = inhibition) at 1uM” value was 6.48%. `O=C(c1cccn(Cc2ccc(Cl)c(Cl)c2)c1=O)N1CCOCC1` was tested, and the “hERG current change (%, negative = inhibition) at 1uM” value was -7.6%. `CCN1CCN(C(=O)C2CC(c3ccc(F)cc3)=NO2)CC1` (centres unmarked) was tested, and the “hERG current change (%, negative = inhibition) at 1uM” value was 5.31%. `CN1C(C(=O)Nc2ccccn2)=C(O)c2ccccc2S1(=O)=O` was tested, and the “hERG current change (%, negative = inhibition) at 1uM” value was 4%. `O=C(CS(=O)(=O)c1ccc2ccccc2c1)N1CCCCCC1` was tested, and the “hERG current change (%, negative = inhibition) at 1uM” value was 4.5%. With `COc1cccc(C(=O)Nc2nnc(SCC(=O)NC3CC3)s2)c1` the “hERG current change (%, negative = inhibition) at 1uM” value was 15.6%. In the case of `CN(C(=O)CCN1C(=O)c2ccccc2C1=O)C1CCCCC1`, the “hERG current change (%, negative = inhibition) at 1uM” value is reported as 5.67%. For `Cc1cc(Cl)ccc1OC(C)C(=O)Nc1ccc(S(=O)(=O)Nc2cnc3ccccc3n2)cc1` (centres unmarked), the “hERG current change (%, negative = inhibition) at 1uM” value was 8.79%. In the case of `CC(C)(C)c1nnc(NC(=O)CCS(=O)(=O)Cc2ccccc2)s1`, the “hERG current change (%, negative = inhibition) at 1uM” value is reported as 14.6%. For `COc1cccc(Nc2ccccc2C(=O)O)c1`, the “hERG current change (%, negative = inhibition) at 1uM” value was 12.5%. With `CCOc1cc(S(=O)(=O)N(CC)CC)c(OCC)cc1-n1cnnn1` the “hERG current change (%, negative = inhibition) at 1uM” value was -6.53%. With `COc1cccc(CNC(=O)N[C@@H](CC(C)C)C(=O)O)c1` the “hERG current change (%, negative = inhibition) at 1uM” value was 20.8%. For `CNc1ccc(C(=O)N2CCN(S(=O)(=O)c3ccc4c(c3)OCCCO4)CC2)cc1[N+](=O)[O-]`, the “hERG current change (%, negative = inhibition) at 1uM” value was 8.92%. With `Cc1[nH]n(-c2nc(-c3ccccc3F)cc(=O)[nH]2)c(=O)c1CCO` the “hERG current change (%, negative = inhibition) at 1uM” value was 8.28%. For `NC(=O)N/N=C/c1coc2ccc3ccccc3c2c1=O`, the “hERG current change (%, negative = inhibition) at 1uM” value was 11.8%. In the case of `CCc1c(C)nc(SCC(=O)Nc2ccc(Br)cc2)[nH]c1=O`, the “hERG current change (%, negative = inhibition) at 1uM” value is reported as 8.89%. In the case of `O=C1CCC(C(=O)N2CCCCO2)CN1CCc1ccccc1` (centres unmarked), the “hERG current change (%, negative = inhibition) at 1uM” value is reported as 3.92%. `Cc1nc2cc(C(F)(F)F)ccc2n1C1CCN(CC(=O)N2CCOCC2)CC1` was tested, and the “hERG current change (%, negative = inhibition) at 1uM” value was -8.69%. For `C=CCCC(=O)N1CCC(n2nccc2NC(=O)c2ccccc2C)CC1`, the “hERG current change (%, negative = inhibition) at 1uM” value was -5.21%. In the case of `O=C(O)C1C2C=CC(C2)C1C(=O)NCc1cccnc1` (centres unmarked), the “hERG current change (%, negative = inhibition) at 1uM” value is reported as -9.13%. With `COc1ccc(Cl)cc1C(=O)Nc1nc(C)cc(C)n1` the “hERG current change (%, negative = inhibition) at 1uM” value was 15.7%. `Cc1ccc(/C=C2\SC(=S)N(c3cccnc3)C2=O)o1` was tested, and the “hERG current change (%, negative = inhibition) at 1uM” value was 9.21%. In the case of `S=C(N/N=C/c1ccc(Cl)cc1)N1CCOCC1`, the “hERG current change (%, negative = inhibition) at 1uM” value is reported as 6.46%. In the case of `COC(=O)c1ccc(CSc2n[nH]c(C)n2)o1`, the “hERG current change (%, negative = inhibition) at 1uM” value is reported as 11.7%. For `Cc1c(/C=N/NC(=O)COc2ccccc2[N+](=O)[O-])c2ccccc2n1C`, the “hERG current change (%, negative = inhibition) at 1uM” value was -2.69%. In the case of `Cc1ccc(C)n1CCN1CCN(C(=O)CC#N)CC1`, the “hERG current change (%, negative = inhibition) at 1uM” value is reported as 8.04%. In the case of `Cc1ccc(C)c(NC(=O)CSc2nc3nc(-c4cccs4)cc(C(F)(F)F)c3c(=O)[nH]2)c1`, the “hERG current change (%, negative = inhibition) at 1uM” value is reported as 4.93%. `COc1ccc(N2C(S)=C(C#N)C(=O)NC2c2ccco2)cc1` (centres unmarked) was tested, and the “hERG current change (%, negative = inhibition) at 1uM” value was 8.67%. With `O=C1CC(c2ccccc2)=Nc2ccccc2N1Cc1ccccc1` the “hERG current change (%, negative = inhibition) at 1uM” value was 6.72%. In the case of `Cc1cc(NC(=O)c2ccccc2C)ccc1NC(=O)c1ccccc1Cl`, the “hERG current change (%, negative = inhibition) at 1uM” value is reported as 11.1%. With `CCOC(=O)c1ccc(CSc2ncn[nH]2)o1` the “hERG current change (%, negative = inhibition) at 1uM” value was 13.8%. `COCCn1c(SCC(=O)Nc2ccc(OC)c(S(N)(=O)=O)c2)nc2ccccc2c1=O` was tested, and the “hERG current change (%, negative = inhibition) at 1uM” value was 10.3%. `CSc1ccccc1N=Cc1nc(-c2ccccc2)oc1O` was tested, and the “hERG current change (%, negative = inhibition) at 1uM” value was 0.897%. `COc1ccc(C(=O)Nc2cc(Cl)ccc2Cl)c(OC)n1` was tested, and the “hERG current change (%, negative = inhibition) at 1uM” value was 4.33%. In the case of `CC(C)CNc1oc(-c2ccccc2Cl)nc1C#N`, the “hERG current change (%, negative = inhibition) at 1uM” value is reported as -12.5%. `Cc1cc(C)c(N2CCN(S(=O)(=O)N3CCCCCC3)CC2)c(C)c1` was tested, and the “hERG current change (%, negative = inhibition) at 1uM” value was -2.05%. In the case of `CCn1c(S(=O)(=O)O)nc2ccccc21`, the “hERG current change (%, negative = inhibition) at 1uM” value is reported as 2.11%. For `Cc1cc(OCC(=O)N(Cc2ccco2)C2CCS(=O)(=O)C2)ccc1Cl` (centres unmarked), the “hERG current change (%, negative = inhibition) at 1uM” value was -3.65%. In the case of `Nc1c(-c2ccccc2)c(CSc2nc3ccccc3[nH]2)nn1-c1cccc(C(=O)O)c1`, the “hERG current change (%, negative = inhibition) at 1uM” value is reported as 3.77%. In the case of `O=C(Nc1ccccc1N1CCCCC1)c1ccc(OC(F)F)cc1`, the “hERG current change (%, negative = inhibition) at 1uM” value is reported as -4.9%. For `COc1cc2c(cc1OC)C(c1ccccc1N)=NCC2`, the “hERG current change (%, negative = inhibition) at 1uM” value was 14.7%. In the case of `Cc1ccc2c(c1)N(Cc1cccc(F)c1)C(=O)C(C)O2` (centres unmarked), the “hERG current change (%, negative = inhibition) at 1uM” value is reported as 12.4%. For `Cc1ccc(-c2csc3ncnc(SCC(N)=O)c23)cc1`, the “hERG current change (%, negative = inhibition) at 1uM” value was 17.1%. `COc1cc(OC)cc(C(=O)N[C@H](C(=O)NC23CC4CC(CC(C4)C2)C3)C(C)C)c1` was tested, and the “hERG current change (%, negative = inhibition) at 1uM” value was 16.2%. In the case of `CC(C)C(=O)OCC(=O)Nc1ccc(N=Nc2ccccc2)cc1`, the “hERG current change (%, negative = inhibition) at 1uM” value is reported as 10.8%. For `Cc1ccc(S(=O)(=O)N2CC3CCC2C3)cc1` (centres unmarked), the “hERG current change (%, negative = inhibition) at 1uM” value was 15.7%. For `CC(C)(C)C(=O)Nc1cc(NC(=O)C(C)(C)C)cc(C(=O)Nc2cc(C(=O)O)cc(C(=O)O)c2)c1`, the “hERG current change (%, negative = inhibition) at 1uM” value was 4.99%. `CCCCOC(=O)c1ccc(NC(=O)c2c(Cl)ccc(Cl)c2OC)cc1` was tested, and the “hERG current change (%, negative = inhibition) at 1uM” value was 10.7%.
